The results in this text go back to paper PMC4336329 (PLoS ONE, 2015).

The whole screen tested about 310,000 compounds, of which about 14,000 (4.5%) showed an effect of 50% or more. Effects have a minus sign here. The list shows a part of the results.
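Further: peak tail current of the secondary pulse compared with the same well before compound.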

For this assay, the target named is human ether-à-go-go-related gene (hERG) potassium channel (human, UniProt Q12809). The experiment in a line: primary screen, population patch clamp on CHO cells stably expressing hERG.
Sequence of human ether-à-go-go-related gene (hERG) potassium channel (Q12809 whole entry, looked up): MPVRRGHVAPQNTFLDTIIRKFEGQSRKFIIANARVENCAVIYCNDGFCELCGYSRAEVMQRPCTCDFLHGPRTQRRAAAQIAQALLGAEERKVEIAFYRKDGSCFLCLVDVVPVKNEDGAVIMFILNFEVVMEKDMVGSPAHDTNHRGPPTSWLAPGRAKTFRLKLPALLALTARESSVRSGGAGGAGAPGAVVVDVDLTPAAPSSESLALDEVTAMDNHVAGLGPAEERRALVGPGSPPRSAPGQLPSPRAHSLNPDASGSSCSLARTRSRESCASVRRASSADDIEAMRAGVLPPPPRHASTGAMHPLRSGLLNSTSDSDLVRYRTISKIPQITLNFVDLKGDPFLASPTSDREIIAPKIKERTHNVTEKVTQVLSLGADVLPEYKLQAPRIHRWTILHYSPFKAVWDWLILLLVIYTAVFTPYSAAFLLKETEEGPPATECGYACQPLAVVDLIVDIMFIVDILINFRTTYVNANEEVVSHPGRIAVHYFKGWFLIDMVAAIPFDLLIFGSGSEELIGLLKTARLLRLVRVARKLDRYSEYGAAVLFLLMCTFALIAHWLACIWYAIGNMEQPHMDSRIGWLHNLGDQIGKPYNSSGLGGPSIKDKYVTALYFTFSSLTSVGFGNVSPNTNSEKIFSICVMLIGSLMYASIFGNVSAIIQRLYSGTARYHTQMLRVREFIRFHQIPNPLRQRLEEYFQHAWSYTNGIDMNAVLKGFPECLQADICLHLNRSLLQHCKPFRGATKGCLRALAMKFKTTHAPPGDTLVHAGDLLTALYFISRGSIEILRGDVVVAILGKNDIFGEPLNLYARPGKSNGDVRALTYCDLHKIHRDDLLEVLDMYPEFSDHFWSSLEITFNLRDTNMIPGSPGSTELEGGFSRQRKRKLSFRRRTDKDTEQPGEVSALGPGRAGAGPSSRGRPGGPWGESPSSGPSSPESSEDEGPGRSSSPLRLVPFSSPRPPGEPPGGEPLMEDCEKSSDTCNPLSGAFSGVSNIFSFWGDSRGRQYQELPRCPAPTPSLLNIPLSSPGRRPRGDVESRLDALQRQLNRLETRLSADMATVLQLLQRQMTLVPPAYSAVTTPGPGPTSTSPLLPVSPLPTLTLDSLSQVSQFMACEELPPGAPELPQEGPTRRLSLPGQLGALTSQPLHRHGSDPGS
Take `CC(=O)c1ccc(N2CCN(CC(O)COC(c3ccccc3)c3ccccc3)CC2)cc1` (stereo not shown): the “hERG current change (%, negative = inhibition) at 10uM” value is -66.5%.

Consider `C=CCNC(=O)c1cc2sccc2n1C`, for which the “hERG current change (%, negative = inhibition) at 10uM” value was 5.7%.

Take `CCN1CCN(C(=S)Nc2ccc3nc4n(c(=O)c3c2)CCCCC4)CC1`: the “hERG current change (%, negative = inhibition) at 10uM” value stood at 1.83%.

Take `CC(C)CC(C)NNC(=O)c1cc2ccccc2[nH]1` (stereo not shown): the “hERG current change (%, negative = inhibition) at 10uM” value was 0.614%.

In the case of `COc1cc(CC(NC(C)=O)C(=O)NC2CCN(S(=O)(=O)c3ccc(NC(C)=O)cc3)CC2)cc(OC)c1` (stereo not shown), the “hERG current change (%, negative = inhibition) at 10uM” value was 21.7%.

Take `CCCS(=O)(=O)c1nc(S(=O)(=O)c2ccc(C)cc2)c(N2CCOCC2)s1`: the “hERG current change (%, negative = inhibition) at 10uM” value is listed as 17.5%.

On to `CCCSc1nc2c(cnn2-c2ccccc2)c(=O)[nH]1`, for which the “hERG current change (%, negative = inhibition) at 10uM” value is -12.2%.

As for `CCCC1CC(C#N)N(N(C)C)C1=C(C#N)C#N` (stereo not shown), the “hERG current change (%, negative = inhibition) at 10uM” value is on record as 0.118%.

`CC(=O)NC(C)c1nc2ccccc2n1Cc1ccccc1F` (stereo not shown): the “hERG current change (%, negative = inhibition) at 10uM” value is given as -12.8%.

On to `COc1ccc(C)cc1NC(=O)C1CCN(C(=O)Cc2ccccc2)CC1`, for which the “hERG current change (%, negative = inhibition) at 10uM” value came to 8.85%.

Take `COc1ccc(Nc2ncc(F)c(N3CCOCC3)n2)cc1`: the “hERG current change (%, negative = inhibition) at 10uM” value was found to be 17.6%.

As to `N#CCCN(NC1=NS(=O)(=O)c2ccccc21)C(=O)c1ccccc1Br`, the “hERG current change (%, negative = inhibition) at 10uM” value was 7.17%.

As to `O=C1COc2ccc(C(=O)NC3CC3)cc2N1`, the “hERG current change (%, negative = inhibition) at 10uM” value is on record as 9.66%.

Take `Cn1c(=O)c2c(nc(NCCO)n2CCCc2ccccc2)n(C)c1=O`: the “hERG current change (%, negative = inhibition) at 10uM” value is recorded as 8.23%.

For the compound `CNC(=O)COC(=O)c1c2c(nc3ccccc13)CCC2`, the “hERG current change (%, negative = inhibition) at 10uM” value is -15.9%.

Consider `COc1ccc(OC)c(-n2c(SCC(=O)Nc3cccc(S(N)(=O)=O)c3)nc3ccccc3c2=O)c1`, for which the “hERG current change (%, negative = inhibition) at 10uM” value is -18.8%.

Consider `O=C(Nc1ccc(N2CCN(C(=O)c3cccs3)CC2)cc1)c1ccccc1Cl`, for which the “hERG current change (%, negative = inhibition) at 10uM” value stood at 16.6%.

Consider `CC1(C)Cc2c(cnn2-c2ccc(F)cc2)C(NC(=O)CCN2CCCC2=O)C1` (stereo not shown), for which the “hERG current change (%, negative = inhibition) at 10uM” value is 5.01%.

For `CCOc1ccc(/C=N/Nc2nc(=O)[nH]nc2C)cc1OC`, the “hERG current change (%, negative = inhibition) at 10uM” value was -27%.

In the case of `Cc1ccc(-n2c(O)c(/C=N/NC(=O)C3COc4ccccc4O3)c3ccccc3c2=O)cc1` (stereo not shown), the “hERG current change (%, negative = inhibition) at 10uM” value is -8.71%.

`CCCCn1c(CCn2nc(C)c(Br)c2C)n[nH]c1=S`: the “hERG current change (%, negative = inhibition) at 10uM” value came to 7.63%.

Turning to `O=C(COc1ccccc1-c1ccccc1)N/N=C/c1ccncc1`, the “hERG current change (%, negative = inhibition) at 10uM” value is given as -26.2%.

For `O=S(=O)(Nc1ccc(Oc2ncccn2)c(Cl)c1)c1ccc(Cl)cc1`, the “hERG current change (%, negative = inhibition) at 10uM” value was -9.75%.

As to `CCCCC1(CCCC)NC(=S)N(Nc2ccc(C)cc2)C1=O`, the “hERG current change (%, negative = inhibition) at 10uM” value is listed as 10.7%.

For the compound `CC(C(=O)NN)c1ccc([N+](=O)[O-])cc1` (stereo not shown), the “hERG current change (%, negative = inhibition) at 10uM” value came out at 2.22%.
